Hit rate of the full screen: of about 310,000 compounds, about 2,200 (0.71%) showed an effect of 50% or more. The effect is printed as a negative number. Some of the results follow.
target: human ether-à-go-go-related gene (hERG) potassium channel (human, UniProt Q12809); test: primary screen, population patch clamp on CHO cells stably expressing hERG
Sequence (Q12809 whole entry, looked up): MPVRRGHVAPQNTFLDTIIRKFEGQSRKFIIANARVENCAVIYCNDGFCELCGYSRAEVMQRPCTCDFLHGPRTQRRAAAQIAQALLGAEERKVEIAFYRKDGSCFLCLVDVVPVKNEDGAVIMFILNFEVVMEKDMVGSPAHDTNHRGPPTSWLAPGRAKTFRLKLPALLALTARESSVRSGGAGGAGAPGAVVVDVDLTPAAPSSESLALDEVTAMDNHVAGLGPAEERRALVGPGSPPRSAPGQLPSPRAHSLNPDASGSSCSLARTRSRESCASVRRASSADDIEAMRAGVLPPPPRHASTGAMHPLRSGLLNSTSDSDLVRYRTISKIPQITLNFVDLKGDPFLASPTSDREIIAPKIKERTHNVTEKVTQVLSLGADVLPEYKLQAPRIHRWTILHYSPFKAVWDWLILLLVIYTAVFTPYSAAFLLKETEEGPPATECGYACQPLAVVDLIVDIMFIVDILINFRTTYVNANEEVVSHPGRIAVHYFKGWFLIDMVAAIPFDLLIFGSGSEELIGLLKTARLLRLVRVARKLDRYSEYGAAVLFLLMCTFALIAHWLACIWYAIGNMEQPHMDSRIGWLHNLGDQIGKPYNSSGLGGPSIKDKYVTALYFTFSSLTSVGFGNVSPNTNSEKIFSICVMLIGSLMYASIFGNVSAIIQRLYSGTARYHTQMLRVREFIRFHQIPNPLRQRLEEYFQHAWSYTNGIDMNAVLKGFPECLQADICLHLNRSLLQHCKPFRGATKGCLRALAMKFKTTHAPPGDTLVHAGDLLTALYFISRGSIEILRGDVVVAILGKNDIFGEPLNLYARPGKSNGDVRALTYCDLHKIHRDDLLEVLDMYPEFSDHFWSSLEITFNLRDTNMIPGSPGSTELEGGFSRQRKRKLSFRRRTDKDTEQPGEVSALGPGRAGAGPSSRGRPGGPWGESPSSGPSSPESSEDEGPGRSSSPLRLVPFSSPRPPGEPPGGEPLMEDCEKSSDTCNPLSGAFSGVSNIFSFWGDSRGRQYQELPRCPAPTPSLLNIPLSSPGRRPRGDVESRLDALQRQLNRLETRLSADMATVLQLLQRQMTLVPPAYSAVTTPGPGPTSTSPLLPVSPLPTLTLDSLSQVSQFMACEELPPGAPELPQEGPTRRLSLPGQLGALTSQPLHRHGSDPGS

| Structure (SMILES) | hERG current change (%, negative = inhibition) at 1uM |
| --- | --- |
| O=C1C=C(Nc2ccc(Cl)cc2)CC(c2ccc(Cl)cc2)C1 (stereo not shown) | 10.8% |
| O=c1[nH]nc(CNc2ccc(C(F)(F)F)cc2)c2ccccc12 | 1.87% |
| Cc1nn(CC(=O)NCCN2CCCCCC2)c(=O)c2nn(-c3ccccc3)c(C)c12 | 10.3% |
| C[C@H]1CN=C(Nc2ccccc2)N1CC1CCC1 | 5.63% |
| COc1ccc(C(=O)NCCc2nnc3ccc(SCC(=O)N4CCOCC4)nn23)cc1 | 7.86% |
| COc1cc(NC(=O)CCn2c(=S)oc3ccccc32)cc(OC)c1OC | -1.54% |
| CCCCN(C(C)=O)c1c(N)n(CCC)c(=O)n(CC(=O)Nc2cc(Cl)cc(Cl)c2)c1=O | 13.3% |
| CCCCNC(=O)CN1C(=O)C(CC)Oc2ccc(Cl)cc21 (stereo not shown) | 6.11% |
| CC1CCc2sc3ncnc(N4CCOCC4)c3c2C1 (stereo not shown) | -2.2% |
| CCOC(=O)CSc1cc(-c2ccccc2)nc2ncnn12 | 6.11% |
| O=C(CCSc1ccc(F)cc1)Nc1ccc(-n2cnnn2)cc1 | 10.3% |
| Cn1c(=O)c2c(nc3n2CC(COc2ccc(Cl)cc2)O3)n(C)c1=O (stereo not shown) | 14.6% |
| CC(Oc1ccccc1F)C(=O)NC1CCS(=O)(=O)C1 (stereo not shown) | 12.4% |
| COc1ccccc1C(=O)NC(=S)Nc1cc(C(=O)O)ccc1C | 12.2% |
| Cc1nc(C)c(N)c(=O)[nH]1.Cl | 13.2% |
| Cc1cc(C(F)(F)F)nn1CC(=O)NCc1ccco1 | 6.61% |
| COc1ccccc1NC(=S)Nc1ccccc1F | 8.75% |
| CCCOc1ccc(OCCN2CCCC(C)C2)cc1.O=C(O)C(=O)O (stereo not shown) | 0.638% |
| COc1cccc(C(c2nnnn2Cc2ccco2)N2CCN(Cc3ccccc3)CC2)c1OC.Cl (stereo not shown) | -0.106% |
| Cc1ccc(C(=O)COc2ccccc2-c2ccccc2)cc1 | 9.48% |
| O=C(CSc1nnc(-c2cccnc2)n1-c1ccc(F)cc1)NCc1ccc2c(c1)OCO2 | -54.5% |
| COc1ccc(-n2sc3c(c2=S)-c2cc(OC)ccc2NC3(C)C)cc1 | 4.31% |
| O=C(c1cccs1)N(Cc1ccco1)Cc1cc2ccccc2[nH]c1=O | -2.69% |

| Structure (SMILES) | hERG current change (%, negative = inhibition) at 1uM |
| --- | --- |
| Nc1nc(NCCCN2CCOCC2)nc(Nc2ccc(F)cc2)c1[N+](=O)[O-] | -13.9% |
| COc1ccccc1CN(CC(=O)NCc1ccc2c(c1)OCO2)C(=O)c1csnn1 | -0.0171% |
| O=C(O)c1ccc(CSC2CCCCC2)cc1 | 16.4% |
| Cc1ccc(C(=O)Nc2cccc3cccnc23)cc1Br | 7.95% |
| COc1ccccc1N1CCNC(C)C1=O.Cl (stereo not shown) | 15.4% |
| Cn1c(C2CC(=O)N(Cc3ccccc3)C2)nc2ccccc21 (stereo not shown) | 12.4% |
| CC(=C/c1ccc(C(C)C)cc1)/C=N/NC(=O)c1ccncc1 | 12.1% |
| CCn1c(SCC(=O)Nc2cccc(NC(=O)c3ccco3)c2)nnc1-c1cccs1 | -12.4% |
| CC(C)CCN(CCC(C)C)CC(O)Cn1c2ccccc2c(=O)c2ccccc21 (stereo not shown) | 10.7% |
| Cc1noc(C)c1C(=O)NCCc1ccccc1 | 1.22% |
| Cc1ccc(NC(=O)c2c(NC(=O)CCC(=O)O)sc3c2CCCCC3)cc1 | 3.98% |
| Cc1n[nH]c(=O)nc1NCc1ccco1 | 14.5% |
| Cc1ccc(-n2[nH]c(C)c(C=NCc3ccncc3)c2=O)cc1 | -27.7% |
| CCN(CC)CCNS(=O)(=O)c1ccc(C(=O)NN)cc1 | 4.77% |
| O=C(CCCc1ccccc1)Nc1nncs1 | 14.3% |
| O=C(NCc1ccco1)c1ccc(Cl)c(S(=O)(=O)Nc2ccccc2)c1 | 30.4% |
| CC1=C(C(=O)OCc2ccccc2)C(c2ccc([N+](=O)[O-])cc2)NC(=O)N1C (stereo not shown) | -10.8% |
| CCOc1cc(C(=O)Nc2cc(C)ccn2)cc(OCC)c1OCC | -4.75% |
| COc1ccc(S(=O)(=O)NC(C)C(=O)NCc2ccco2)cc1OC (stereo not shown) | 10.2% |
| Cc1ccccc1C(=O)Nc1nc(SCc2ccc(Cl)cc2)n[nH]1 | 1.95% |
| CCOC(=O)c1c(OCC)[nH]c2c1cc(O)c1ccccc12 | 13.8% |
| COC(=O)Cn1c(C)nc2ccccc21 | 7.8% |
| COc1ccc(NC(=O)CSc2nnc(CNC(=O)COc3ccc(Cl)cc3)o2)cc1 | 13.6% |

| Structure (SMILES) | hERG current change (%, negative = inhibition) at 1uM |
| --- | --- |
| O=C(NNC1CC(=O)N(c2ccc(Cl)cc2)C1=O)c1ccco1 (stereo not shown) | 15.8% |
| CCCCN(C)C(=O)c1cc2cc([N+](=O)[O-])cc(OC)c2oc1=O | 9.55% |
| COc1ccc(CCC(=O)OCC(=O)N2CCN(S(=O)(=O)c3ccc(C)cc3C)CC2)cc1 | 6.89% |
| COC(=O)c1ccccc1NCCO | 15.5% |
| O=C(C1=C(O)C(=O)N(CCOCCO)C1c1cccc([N+](=O)[O-])c1)c1cccs1 (stereo not shown) | 16.3% |
| CCOC(=O)c1cc(C)sc1/N=C/C1C(=O)NC(=S)NC1=O | 14% |
| COc1ccc(N(C2=NCCCS2)S(=O)(=O)c2ccc(C(C)(C)C)cc2)cc1 | 3.59% |
| S=C(NCCc1ccccc1)N1CCc2ccccc2C1 | 5.21% |
| CS(=O)(=O)N1CCCC(C(=O)NCCCN2CCN(Cc3ccccc3)CC2)C1 (stereo not shown) | -8.14% |
| Cc1nnc(N2CCOCC2)c2nn(-c3cccc(Cl)c3)c(C)c12 | 2.64% |
| O=C(Nc1ccc(-c2cn3ccsc3n2)cc1)C1CC1 | 3.88% |
| CC(=O)NCCn1c(SCC(=O)c2ccc(Cl)cc2)nc2ccccc2c1=O | 3.58% |
| Cn1nnnc1Sc1ncnc2scc(-c3cccc(S(C)(=O)=O)c3)c12 | 12.6% |
| O/N=C(/c1ccc(F)cc1)C1CC1c1c(F)cccc1Cl (stereo not shown) | 11.9% |
| CCOc1ccc(N(CC(=O)NCC2CCCO2)C(=O)CCC(=O)Nc2nccs2)cc1 (stereo not shown) | 18.8% |
| CCOC(=O)c1c(NC(=O)c2ccno2)c2cc([N+](=O)[O-])ccc2n1C | 13.4% |
| O=C(N/N=C/c1cccnc1)c1ccc2c(c1)OCO2 | 9.81% |
| CCCCC1(CN2CCCC2=O)C(=O)NC(=O)NC1=O | 10.7% |
| O=C(Nc1cccc(Cl)c1Cl)c1ccccc1OCC(=O)N1CCOCC1 | -2.07% |
| CN1CCN(CC(=O)Nc2nc3ccccc3s2)CC1.O=CO | 9.98% |
| CCOC(=O)COc1cc(-n2c(=S)[nH]c3cc(OC)c(OC)cc3c2=O)c(Cl)cc1Cl | 15.9% |
| Cc1c(N=Cc2nc3ccccc3n2C)c(=O)n(-c2ccccc2)n1C | -6.74% |
| Cc1cccc(Oc2ccccc2NC(=O)CN2C(=O)NC3(CCCC3)C2=O)c1 | 15.5% |

| Structure (SMILES) | hERG current change (%, negative = inhibition) at 1uM |
| --- | --- |
| O=c1c2ccccc2nc(/C=C/c2ccc(Cl)cc2)n1CCO | 18.2% |
| Cc1ccc(Cn2nnc3c(=O)[nH]c(C4CCCN(S(=O)(=O)c5ccc(F)cc5)C4)nc32)cc1 (stereo not shown) | 11.9% |
| Cc1nc2cc(NC(=O)CS(=O)(=O)c3ccc(F)cc3)ccc2s1 | -6.12% |
| O=C(NCc1nc2ccccc2[nH]1)C1=C[C@H](c2ccccc2)C[C@H](OCc2ccc(CO)cc2)O1 | 4.19% |
| Clc1cc(Cl)c(Cl)cc1Cl | 4.81% |
| COC(=O)c1[nH]c(C)c(/C(O)=C2\C(=O)C(=O)N(CCN(C)C)C2c2cccs2)c1C (stereo not shown) | 12.8% |
| Cc1cccc(NC(=O)c2c(C)nn(-c3ccccc3)c2Cl)c1 | -0.159% |
| CC(=O)c1cccc(NC(=O)COC(=O)COc2ccc(Cl)cc2)c1 | 16.4% |
| Cc1cc(OC(=O)c2cccc(Br)c2)c([N+](=O)[O-])c(=O)[nH]1 | 6.44% |
| O=C(Nc1ccc(F)cc1)Nc1ccc2c(c1)CCC2 | 15.1% |
| O=C(c1ccccc1[N+](=O)[O-])N1N=C(c2ccccc2)CC1(O)C(F)(F)F (stereo not shown) | 20.7% |
| CCOC(=O)C1(Cc2cccc(F)c2)CCN(Cc2nc(CC)[nH]c2C)CC1 | -2.82% |
| Cc1ccc2nsnc2c1NC(=O)COc1ccccc1F | 9.57% |
| O=S(=O)(NCc1ccccn1)c1ccc2ccccc2c1 | 12.9% |
| Cc1ccc(S(=O)(=O)Nc2nc(C)cc(NN)n2)cc1 | 20.5% |
| COc1cc(NC(=O)[C@H]2CSCN2C(=O)[C@@H]2CCC(=O)N2)cc(OC)c1OC | 10.8% |
| CC(C)(C)C(=O)NCCn1ccc2ccccc21 | 18% |
| CC(C)c1nc2sc3c(SCC(=O)NCc4ccco4)ncnc3c2c2c1CCC2 | 3.23% |
| COc1cc(C2NC(=O)NC(C)=C2C(=O)OCc2ccccc2)ccc1O (stereo not shown) | -3.8% |
| CN(C)CCCNc1cc(C(C)(C)C)nc2c(-c3ccccc3)cnn12 | 11.9% |
| Cc1ccc(N2CC(C(=O)OCc3ccc([N+](=O)[O-])cc3)CC2=O)cc1 (stereo not shown) | -35.7% |
| CC1(C)C(N(O)C(=O)Nc2ccccc2)N(c2cccc(Cl)c2)C(=O)N1O (stereo not shown) | 14.7% |
